Test results as given in the supplement of paper PMC3334620.
The full ranking holds about 33,000 sequences; the median of “E-score (-0.5 to 0.5)” is about -0.035, and the highest 2% start at about 0.34. The list shows a part of the results.

The sequences below were run against T1, Mot3 (UniProt P54785) (assay: PBM E-score (8-mer binding enrichment) (E-score (-0.5 to 0.5)); higher = stronger / more preferred TF binding; most listed sequences are background and not binding sites). Conditions: protein concentration: 200 nM; construct: GST-full length.
T1 sequence: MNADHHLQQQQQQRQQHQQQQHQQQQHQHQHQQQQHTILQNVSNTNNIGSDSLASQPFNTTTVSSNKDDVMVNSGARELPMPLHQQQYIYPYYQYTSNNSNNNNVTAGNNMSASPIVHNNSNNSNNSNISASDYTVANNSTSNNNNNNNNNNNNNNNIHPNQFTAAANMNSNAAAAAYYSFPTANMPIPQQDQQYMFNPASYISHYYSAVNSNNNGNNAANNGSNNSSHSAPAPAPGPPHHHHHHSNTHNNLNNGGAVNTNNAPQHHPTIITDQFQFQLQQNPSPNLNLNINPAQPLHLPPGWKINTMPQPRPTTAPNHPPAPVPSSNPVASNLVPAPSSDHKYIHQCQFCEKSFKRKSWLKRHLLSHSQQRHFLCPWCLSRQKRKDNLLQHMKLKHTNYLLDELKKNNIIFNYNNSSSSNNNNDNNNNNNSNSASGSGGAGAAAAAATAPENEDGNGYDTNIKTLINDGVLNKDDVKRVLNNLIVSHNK
Procedure, shortened: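 Universal all-10-mer Agilent arrays, fresh or stripped once, were converted to double-stranded form by primer extension. GST-tagged yeast transcription factors from PURExpress in vitro transcription/translation, full-length or DNA-binding domain only, were applied at about 100-200 nM and detected with fluorescent anti-GST. After masliner normalisation, the Universal PBM Analysis Suite scored each ungapped eight-base word together with its reverse complement by E-score.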

| Sequence | PBM E-score |
| --- | --- |
| CGTGATTA | 0.0977 |
| AGGCTATG | 0.0627 |
| GATCTAGC | -0.194 |
| CCGATAAG | -0.00261 |
| AATTTGAA | -0.0278 |
| AGCCGAGG | -0.0186 |
| CTATATGC | 0.0184 |
| CGACGCTA | -0.143 |
| AACATACT | 0.242 |
| TAACACCA | 0.205 |
| CATAAGCA | 0.00271 |
| ACATGTTA | 0.397 |
| CTAGTATC | -0.0309 |
| ACCGCAGA | -0.26 |
| GCTTATAA | -0.0151 |
| AGATCAAT | -0.18 |
| AGGTCTAT | -0.196 |
| TCTCGAGA | 0.0477 |
| GTCCCAGA | -0.172 |
| CGAACATC | -0.199 |
| AGTCTGGC | -0.162 |
| TACGCGCA | 0.176 |

| Sequence | PBM E-score |
| --- | --- |
| ACGACAGT | -0.00173 |
| AATACTCA | 0.0675 |
| ATAGGGGG | -0.316 |
| ATAGTGGC | -0.193 |
| CCCAAAAG | 0.0545 |
| AAGGCTGG | -0.153 |
| CTCACGAC | -0.146 |
| AGTGGAGA | -0.0726 |
| GATTGAAA | -0.0494 |
| ACATTATG | 0.126 |
| AGGTGTGC | 0.0416 |
| AGCCTTAG | -0.136 |
| CCCGTGCA | -0.17 |
| CCTCAGAG | -0.249 |
| CCCACCGA | -0.241 |
| GGCAGATA | -0.117 |
| CGATTTCC | 0.0121 |
| CAGGTCAC | 0.0164 |
| TAATCTGA | 0.138 |
| ACGCTTTA | 0.0835 |
| GCCGTCGC | -0.116 |
| CTATCTGA | -0.329 |

| Sequence | PBM E-score |
| --- | --- |
| CGACCATC | -0.171 |
| CATCCACA | -0.0146 |
| GTCCCACA | -0.0631 |
| AGTAACTC | -0.177 |
| AACTTGAG | -0.141 |
| ATGTGCTA | -0.0423 |
| ATCGAAGG | 0.0206 |
| GTGTGAAA | 0.248 |
| ACGCTAAG | -0.0516 |
| GGACAGGA | -0.0828 |
| GTAGTACA | 0.249 |
| ATCACGAT | 0.0535 |
| ATTTCGAA | 0.123 |
| CTTGTCCC | -0.0647 |
| CTTTTATC | -0.0834 |
| GAAACTCC | -0.0903 |
| AGTAAGAC | -0.0721 |
| TCAGATCA | -0.237 |
| GTACGAGA | -0.0381 |
| ACATGACC | 0.293 |
| GGTGAAAC | -0.161 |
| GGTTAAGA | 0.0705 |

| Sequence | PBM E-score |
| --- | --- |
| ACGCAGAG | 0.028 |
| AGCAAAGG | 0.0188 |
| GGCGATTA | -0.0927 |
| AATGCTAA | 0.0146 |
| AGTGTGGG | -0.221 |
| CAGGCGAC | 0.0795 |
| TACTAGAA | 0.0406 |
| GGTTAGAA | -0.245 |
| CGAGGTGC | 0.00872 |
| GCTAGCTA | -0.0486 |
| ACGTAAGC | 0.112 |
| AACGGAGT | -0.0554 |
| ATCTCGTA | 0.104 |
| AAGCTATA | -0.00123 |
| CGAAATAC | 0.0685 |
| GTTGCGTA | 0.278 |
| CAGCCATG | 0.0677 |
| CGTAACGC | 0.113 |
| AGGTCAAG | -0.0903 |
| GCAGCTCC | -0.2 |
